Measurements taken from the supplement of paper PMC5655136.
Values come from read counts of a selection and are noisy.

System: NB7
Test: fold depletion of shRNA, plasmid library share / infected cells without Dox share (9 days) (ratio); higher = more depleted after infection (more toxic, leaky expression from a Tet-inducible vector; NB7 is a neuroblastoma line without caspase-8)
[1] = shRNA pool: CD95 ORF + CD95 3'UTR + Venus libraries
[2] = shRNA pool: CD95L ORF + CD95L 3'UTR + Venus libraries
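Also: shRNA barcodes quantified by deep sequencing of PCR amplicons from cellular DNA, counts expressed as percent of each subpool, ratio averaged over two biological duplicates.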

Row | Sequence | fold depletion of shRNA [1] | fold depletion of shRNA [2]
1 | CAAACTTTTTTTGTAACTCTA | 0.807 | –
2 | CAAAGACCCCAACGAGAAGCG | 0.881 | 0.771
3 | CAAAGACCTTTGCACAGTTTA | 4.6 | –
4 | CAAAGATGATAAAATAGATTC | 1.19 | –
5 | CAAAGCCCATTTTTCTTCCAA | 0.912 | –
6 | CAAAGGAGGCCACCACCACCA | – | 0.818
7 | CAAAGTATACTTCCGGGGTCA | – | 1.77
8 | CAAATAGGAGTGTATGCAGAG | 2.02 | –
9 | CAAATGCAGAAGATGTAGATT | 0.567 | –
10 | CAAATGGAGGAATATGACGGA | – | 3.14
11 | CAAATGGCAGCTTATACATAG | 1.54 | –
12 | CAAATGTCTATCCACAGGCTA | 2.13 | –
13 | CAAATGTGAACATGGAATCAT | 0.913 | –
14 | CAAATTCAGTTCTGAGTATAT | 0.651 | –
15 | CAACAAATTCAGTTCTGAGTA | 1.08 | –
16 | CAACACCAAGTGCAAAGAGGA | 1.21 | –
17 | CAACAGCCACAACGTCTATAT | 1.55 | 2.44
18 | CAACATATTTGTAGATTTTTA | 1.16 | –
19 | CAACATCCTGGGGCACAAGCT | 1.72 | 3.28
20 | CAACATCGAGGACGGCGGCGT | 0.797 | 1.22
21 | CAACCACTACCTGAGCTACCA | 2.17 | 5
22 | CAACCTCTGTGCCCAGAAGGC | – | 5.19
23 | CAACCTGCCCCTGAGCCACAA | – | 1.31
24 | CAACGAGAAGCGCGATCACAT | 0.812 | 0.644
25 | CAACGTATCTGAGCTCTCTCT | – | 1.81
26 | CAACGTCTATATCACCGCCGA | 1.09 | 1.86

Row | Sequence | fold depletion of shRNA [1] | fold depletion of shRNA [2]
27 | CAACTACAACAGCCACAACGT | 2.33 | 2.56
28 | CAACTACAAGACCCGCGCCGA | 1.38 | 1.24
29 | CAACTCAAGGTCCATGCCTCT | – | 1.45
30 | CAACTCACCTAATGTTTATGA | – | 1.3
31 | CAACTCCAAGGGATTGGAATT | 0.812 | –
32 | CAACTCTAATAGTGCTTAAAA | – | 0.456
33 | CAACTGCTTCGTAATTGGCAT | 0.902 | –
34 | CAACTTCAAGATCCGCCACAA | 1.45 | 2.79
35 | CAACTTCATGGAAAGAAAGAA | 0.51 | –
36 | CAACTTTAAATCCTGAAACAG | 0.579 | –
37 | CAAGAAGGGAAGGAGTACACA | 0.955 | –
38 | CAAGAATGACAATGTCCAAGA | 1.22 | –
39 | CAAGACACAGCAGAACAGAAA | 1.26 | –
40 | CAAGACCCGCGCCGAGGTGAA | 0.905 | 0.564
41 | CAAGACTGCCCTTAGAAATTC | 3.85 | –
42 | CAAGAGAGATGTTTTGGGGAC | – | 1.15
43 | CAAGAGTAAATGCAGTGGCAT | 1.44 | –
44 | CAAGATCCGCCACAACATCGA | – | 1.08
45 | CAAGCAGAAGAACGGCATCAA | 1.44 | 1.23
46 | CAAGCTGACCCTGAAGCTGAT | 1.41 | 2.06
47 | CAAGCTGCCCGTGCCCTGGCC | 0.552 | 0.537
48 | CAAGCTGGAGTACAACTACAA | 1.12 | 1.82
49 | CAAGGACATTACTAGTGACTC | 1.45 | –
50 | CAAGGACGACGGCAACTACAA | 1.43 | 1.24
51 | CAAGGAGGACGGCAACATCCT | 2.09 | 1.2
52 | CAAGGATGTTTAAAATCTAGT | 0.471 | –

Row | Sequence | fold depletion of shRNA [1] | fold depletion of shRNA [2]
53 | CAAGGCCAACTTCAAGATCCG | 0.861 | 1.31
54 | CAAGGGATTGGAATTGAGGAA | 1.75 | –
55 | CAAGGGCGAGGAGCTGTTCAC | 0.83 | 2.19
56 | CAAGGGGGACTGTCTTTCAGA | – | 0.696
57 | CAAGGTCCATGCCTCTGGAAT | – | 0.986
58 | CAAGGTCTACATGAGGAACTC | – | 0.631
59 | CAAGGTGGGCCTTGCTACCTC | – | 0.932
60 | CAAGGTTCTCATGAATCTCCA | 2.31 | –
61 | CAAGTAAGAAGACATGAACCA | – | 0.598
62 | CAAGTCCAACTCAAGGTCCAT | – | 0.658
63 | CAAGTCCGCCATGCCCGAAGG | 0.953 | 1.79
64 | CAAGTGACTGACATCAACTCC | 2.08 | –
65 | CAAGTGCAAAGAGGAAGGATC | 1.83 | –
66 | CAAGTGCAGATGTAAACCAAA | 0.814 | –
67 | CAAGTGGACCTTGAGACCACA | – | 0.755
68 | CAAGTTAAAGGCTTTGTTCGA | 0.592 | –
69 | CAAGTTCAGCGTGTCCGGCGA | 1.06 | 0.862
70 | CAAGTTTCTAAGATTTAAGAT | 0.918 | –
71 | CAATAAATTTATCTGATGTTG | 0.702 | –
72 | CAATAATGTCCCATGTAAAAC | 1.09 | –
73 | CAATAGAAGAAGCTATGACCT | 2.23 | –
74 | CAATATTTCAATTGTGAATTC | 0.516 | –
75 | CAATCAAAGATGATAAAATAG | 0.296 | –
76 | CAATCAACTCTAATAGTGCTT | – | 0.336
77 | CAATCTTACCAGTGCTGATCA | – | 3.95
78 | CAATGAAACTGGGCTGTACTT | – | 2.94

Row | Sequence | fold depletion of shRNA [1] | fold depletion of shRNA [2]
79 | CAATGAAGCCAAAATAGATGA | 0.859 | –
80 | CAATGCCCCACTGGCAGCATC | – | 1.46
81 | CAATGGGGATGAACCAGACTG | 0.584 | –
82 | CAATGGTAAAATCATCATCTG | 0.978 | –
83 | CAATGTCCAAGACACAGCAGA | 2.39 | –
84 | CAATTACCCATATCCCCAGAT | – | 1.05
85 | CAATTAGTGTTTGAAAAGATT | 0.785 | –
86 | CAATTCCACTAATTGTTTGGG | 1.08 | –
87 | CAATTGTGAATTCACATAGAA | 0.825 | –
88 | CAATTTTGAGGAATCTCAGAC | – | 1.81
89 | CACAACATCGAGGACGGCGGC | 1.29 | 1.62
90 | CACAACGTCTATATCACCGCC | 0.969 | 1.23
91 | CACAAGCTGGAGTACAACTAC | 1.73 | 1.91
92 | CACAAGGTCTACATGAGGAAC | – | 1.11
93 | CACAAGTTCAGCGTGTCCGGC | 1.49 | 1.59
94 | CACACAGCATCATCTTTGGAG | – | 0.865
95 | CACACTCACCAGCAACACCAA | 0.677 | –
96 | CACAGAAAGGAAAACCAAGGT | 1.29 | –
97 | CACAGACAAAGCCCATTTTTC | 1.6 | –
98 | CACAGCACAGGCCTGTGTCTC | – | 1.64
99 | CACAGCAGAACAGAAAGTTCA | 0.669 | –
100 | CACAGCATCATCTTTGGAGAA | – | 1.54
101 | CACAGCATGTGTATTTCCAGT | – | 4
102 | CACAGGCCTGTGTCTCCTTGT | – | 4.91
103 | CACAGGCTAACCCCACTCTAT | 1.92 | –
